{"source": "paper PMC6919601", "about": "“Identification of Plasmodium dipeptidyl aminopeptidase allosteric inhibitors by high throughput screening” (PLoS ONE, 2019)", "note": "The whole screen tested about 110,000 compounds, of which about 230 (0.21%) showed an effect of 50% or more. This is one part of the list.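 Further: 30 min substrate incubation versus DMSO and 10 µM JCP410 controls.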", "data": [{"target": "DPAP1 (Plasmodium falciparum, UniProt Q8IIJ9)", "sequence (Q8IIJ9 whole entry, looked up)": "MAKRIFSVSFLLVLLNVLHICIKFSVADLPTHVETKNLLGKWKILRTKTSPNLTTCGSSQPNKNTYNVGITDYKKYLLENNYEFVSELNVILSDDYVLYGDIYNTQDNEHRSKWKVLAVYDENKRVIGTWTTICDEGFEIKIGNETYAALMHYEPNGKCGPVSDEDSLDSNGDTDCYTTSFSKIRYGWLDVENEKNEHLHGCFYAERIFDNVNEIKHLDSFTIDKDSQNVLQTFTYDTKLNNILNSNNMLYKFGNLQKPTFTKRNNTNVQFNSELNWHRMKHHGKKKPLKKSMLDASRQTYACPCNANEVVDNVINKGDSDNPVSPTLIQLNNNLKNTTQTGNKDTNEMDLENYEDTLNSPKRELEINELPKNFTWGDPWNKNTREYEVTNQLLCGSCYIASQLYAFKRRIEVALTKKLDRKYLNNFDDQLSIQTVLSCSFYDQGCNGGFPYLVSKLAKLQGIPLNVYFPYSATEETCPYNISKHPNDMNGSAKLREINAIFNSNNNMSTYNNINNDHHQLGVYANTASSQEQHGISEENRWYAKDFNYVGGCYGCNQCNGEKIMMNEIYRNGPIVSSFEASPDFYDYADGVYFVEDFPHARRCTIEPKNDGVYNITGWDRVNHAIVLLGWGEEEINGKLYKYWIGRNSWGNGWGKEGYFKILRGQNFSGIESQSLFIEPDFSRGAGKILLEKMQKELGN", "assay": "primary screen, percent inhibition; read by cleavage of a fluorogenic dipeptide substrate; higher = more effect of the substance", "set-up": "species or system P. falciparum D10 trophozoite lysates; single well", "units": {"% Inhibition @ 10 uM": "%"}, "values": [{"smiles": "O=C(CNC(=O)c1cccs1)NC1CCCCCCC1", "% Inhibition @ 10 uM": 2.05}, {"smiles": "CCCCN(C)C(=O)Cn1ncc2c1-c1ccccc1OC2", "% Inhibition @ 10 uM": 0.0579}, {"smiles": "CCOC(=O)N1CCN(S(=O)(=O)c2ccc(-c3cc(C(F)(F)F)no3)s2)CC1", "% Inhibition @ 10 uM": -1.05}, {"smiles": "O=C(NCCSCc1ccco1)c1ccc(CN2CCc3ccccc3C2)cc1", "% Inhibition @ 10 uM": 1.63}, {"smiles": "N#CC1=C(N)OC2=C(CCCC2)C1c1ccc(F)cc1", "note": "(stereo not drawn)", "% Inhibition @ 10 uM": -0.294}, {"smiles": "Cc1ccc(S(=O)(=O)CC2CSc3nnc(C)c(=O)n32)cc1", "note": "(stereo not drawn)", "% Inhibition @ 10 uM": 1.91}, {"smiles": "CCOc1ccc(/C=C/c2nc(C#N)c(N3CCOCC3)o2)cc1", "% Inhibition @ 10 uM": 0.895}, {"smiles": "CC(Cc1cccc(C(F)(F)F)c1)NCCN1CCCCC1", "note": "(stereo not drawn)", "% Inhibition @ 10 uM": -3.42}, {"smiles": "COc1cccc(CNC(=O)CCCN2C(=O)C(c3ccccc3)Oc3cccnc32)c1OC", "note": "(stereo not drawn)", "% Inhibition @ 10 uM": 2.33}, {"smiles": "Cc1c2cnn(CC(=O)N3CCOCC3)c(=O)c2c(C)n1Cc1ccccc1F", "% Inhibition @ 10 uM": -0.447}, {"smiles": "CC(C)Oc1ccc2ccccc2c1/C=C1\\SC(=O)N(CC(=O)N2CCCCC2)C1=O", "% Inhibition @ 10 uM": -0.25}, {"smiles": "O=C(N/C(=C\\C=C/c1ccccc1)C(=O)N1CCOCC1)c1ccc(Br)o1", "% Inhibition @ 10 uM": 0.674}, {"smiles": "COc1ccccc1/C=C(\\NC(=O)c1ccccc1)C(=O)N1CCCCCC1", "% Inhibition @ 10 uM": -1.26}, {"smiles": "CC1CCCC(C)N1C(=O)c1ccc(Br)cc1", "note": "(stereo not drawn)", "% Inhibition @ 10 uM": -7.5}, {"smiles": "CCOC(=O)c1[nH]c2ccccc2c1NC(=O)Cc1cccc(C)c1", "% Inhibition @ 10 uM": 0.813}, {"smiles": "CC(CCN1C[C@@H]2C[C@H](C1)c1cccc(=O)n1C2)c1ccccc1", "note": "(stereo partly drawn)", "% Inhibition @ 10 uM": -1.85}, {"smiles": "Cc1ccc(NC(=O)c2cccnc2)cc1C", "% Inhibition @ 10 uM": -4.4}, {"smiles": "COc1ccc(-n2c(CN3CCOCC3)nc3ccccc3c2=O)c(OC)c1", "% Inhibition @ 10 uM": -1.51}, {"smiles": "Cc1noc(C)c1CCNC(=O)c1nn(C)c2c1CS(=O)(=O)c1ccccc1-2", "% Inhibition @ 10 uM": -0.495}, {"smiles": "CC1CCc2nn(CC(=O)NCc3ccc(F)cc3)cc2C1", "note": "(stereo not drawn)", "% Inhibition @ 10 uM": -3.35}, {"smiles": "O=C(Nc1ccc(-c2ccc([N+](=O)[O-])cc2)cc1)c1ccc(Cl)cc1", "% Inhibition @ 10 uM": 4.6}, {"smiles": "CC(=O)c1cccc(NC(=O)/C=C/c2ccc(Cl)cc2)c1", "% Inhibition @ 10 uM": 4.6}, {"smiles": "O=C(N/C(=C/c1ccco1)C(=O)N1CCOCC1)c1ccsc1", "% Inhibition @ 10 uM": -0.366}, {"smiles": "Cc1ccc(-c2cn3c(n2)sc2cc(C(=O)NCCN(C)C)ccc23)cc1", "% Inhibition @ 10 uM": 11.6}, {"smiles": "CC(C)CCNC(=O)CCc1nnc2n(CCc3ccccc3)c(=O)c3ccccc3n12", "% Inhibition @ 10 uM": -2.42}, {"smiles": "Oc1cc(-c2ccccc2)nc2nc(COc3ccccc3)nn12", "% Inhibition @ 10 uM": 2.62}, {"smiles": "CCOC(=O)c1c(C)oc2nc(C)nc(NCc3ccc(CN4CCCCC4CC)o3)c12", "note": "(stereo not drawn)", "% Inhibition @ 10 uM": -1.61}]}]}
